Some of the results follow. Antibody binding of pooled human sera (four to six donors per pool; dilution not stated) to peptides of the Trypanosoma cruzi antigen TSSA on microarrays. Quantile-normalised fluorescence in arbitrary units, mean of duplicate arrays; higher = more binding. No active / inactive call. The uninfected pools are read here as the healthy donors of the same country. The strongest signals lie near the top of the scale (about 60,000).

The test system of the experiment is pooled sera of chronic Chagas disease patients, Argentina. The experiment can be described thus: antibody binding signal (normalised fluorescence) (arbitrary fluorescence units); higher = stronger serum antibody binding to peptide. As for the experimental part: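 Microarray of 15-residue peptides over residues 30-55 of Trypanosoma cruzi TSSAII, each with 1 to 10 substitutions at naturally variable positions, probed with one serum pool per country.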
SGTDNKPATGETPSP registered an antibody binding signal of 40000.

In turn, GKEKKAAAGGAPSPS returned an antibody binding signal of 1240.

Take KENKTAAGETPSQSG: the antibody binding signal turned out to be 177.

Sequence GKDNKPAAGGTPSPP registered an antibody binding signal of 331.

GKDKKAATGETPSQS came in with an antibody binding signal of 1880.

With GTEKKPAAGETPSPS, the antibody binding signal was 3120.

GTDKKTAAGETPSQP came in with an antibody binding signal of 260.

As for GKDKKTATGEAPSPS, the antibody binding signal was 4950.

In the case of TENKPAAGEAPSQSG, the antibody binding signal was found to be 42800.

In turn, SGKDKKTAAGGTPSQ registered an antibody binding signal of 494.

Regarding KDKKPATGGAPSQSG, the antibody binding signal was 416.

Regarding TSSTPPSGKDKKPAA, the antibody binding signal is 29300.

The sequence KAAAGGTPSQSGASS showed an antibody binding signal of 183.

Consider TDNKAATGETPSPPG, for which the antibody binding signal was 2970.

For TENKAAAGEAPSQPG, the antibody binding signal is 37400.

For the sequence TDKKTAAGEAPSQPG, the antibody binding signal amounted to 5710.

Consider TDKKTATGGTPSPSG, for which the antibody binding signal turned out to be 827.

The sequence KDKKAATGGTPSQPG showed an antibody binding signal of 337.

Regarding KAAAGGTPSQPGASS, the antibody binding signal came out at 200.

SSTPPSGKENKTATG came in with an antibody binding signal of 17700.

For PSGKENKAATGGAPS, the antibody binding signal came out at 8950.

GKDKKPATGETPSPS returned an antibody binding signal of 29100.

On to GKEKKAAAGGAPSQS, for which the antibody binding signal came to 932.

TPPSGKEKKTATGGT: the antibody binding signal came out at 6910.

With DNKPATGGTPSPSGA, the antibody binding signal was found to be 503.

Sequence SGKDNKTAAGETPSP displayed an antibody binding signal of 1060.

Regarding EKKTAAGGTPSQSGA, the antibody binding signal came out at 954.

For GTDNKTATGGTPSPP, the antibody binding signal amounted to 340.

ENKPATGGTPSPPGA registered an antibody binding signal of 963.

Take SGKDKKPATGEAPSQ: the antibody binding signal was determined as 44700.

Regarding ENKPATGEAPSPSGA, the antibody binding signal was found to be 45700.

The sequence ENKTAAGGTPSQSGA registered an antibody binding signal of 1830.

For ENKPATGGAPSQSGA, the antibody binding signal was found to be 1400.

The sequence GTDKKPAAGGAPSPP registered an antibody binding signal of 463.

SGTENKPATGETPSP showed an antibody binding signal of 39700.

The sequence KDKKAAAGGAPSQSG registered an antibody binding signal of 227.

Regarding GTDNKTAAGGTPSQS, the antibody binding signal came out at 1490.

ENKAATGETPSPSGA registered an antibody binding signal of 4810.

On to GKDKKTAAGGAPSPS, for which the antibody binding signal was found to be 211.

In turn, GKENKTAAGEAPSQS had an antibody binding signal of 6050.
